In US12145987B2, “Method for depleting cytotoxic T cells using an anti-LAG-3 antibody composition” (Daiichi Sankyo Company, Limited, priority 2017, dated 2024):

B1: hLA212_H4/L2: defucosylated humanized antibody; heavy chain positions 20 to 470 of SEQ ID No: 30, light chain positions 21 to 234 of SEQ ID No: 34 (antibody)
heavy: EVQLVESGGGLVQPGGSLRLSCAASGFTYRSYVMAWVRQAPGKGLEWVASISTGGGNTYYRDSVKGRFTISRDNAKNTLYLQMDSLRAEDTAVYYCAEDMSNSGYGLFDYWGQGTLVTVSSASTKGPSVFPLAPSSKSTSGGTAALGCLVKDYFPEPVTVSWNSGALTSGVHTFPAVLQSSGLYSLSSVVTVPSSSLGTQTYICNVNHKPSNTKVDKRV[left out - human IgG1 Fc]
light: DIQMTQSPSSLSASVGDRVTITCKAGQNVDNNIAWYQQKPGQSPKLLIYYASNRNTGVPSRFSGSGYGTDFTLTISSLQPEDFATYYCQRISNSPYTFGQGTKVEIKRTVAAPSVFIFPPSDEQLKSGTASVVCLLNNFYPREAKVQWKVDNALQSGNSQESVTEQDSKDSTYSLSSTLTLSKADYEKHKVYACEVTHQGLSSPVTKSFNRGEC
B2: hLA212_H3/L2: humanized antibody; heavy chain positions 20 to 470 of SEQ ID No: 30, light chain positions 21 to 234 of SEQ ID No: 34 (antibody)
heavy: B1 heavy
light: B1 light

What was measured:
CD57 positive T cells = assay: CD57 positive T cell number after CD3/CD28 stimulation of human PBMCs for 4 days, flow cytometry; format: cell-based
Protocol: (§1) PBMCs were separated from human peripheral blood by Ficoll centrifugation and added to a 96-well U-bottom microplate in an amount of 4×10^5 cells/well. Human IL-2 (PeproTech, Inc., final concentration: 100 ng/mL) and Dynabeads Human T-Activator CD3/CD28 (Life Technologies Corp., 4×105 beads/well) were added thereto, and T cells were activated by culture for 4 days. The obtained cells were recovered, suspended in a FACS buffer (PBS, 0.1% BSA, and 0.1% sodium azide), and then reacted with Human BD Fc Block (Becton, Dickinson and Company) at room temperature for 10 minutes. Subsequently, the cell surface was stained by reaction at 4° C. for 30 minutes with fluorescently labeled antibodies diluted with a FACS buffer containing a LIVE/DEAD Fixable Dead Cell Stain Kit-near-IR fluorescent reactive dye (manufactured by Invitrogen Corp.), followed by washing with a FACS buffer. The fluorescently labeled antibodies used were various combinations of a FITC-labeled anti-human CD8 antibody, a PerCP-Cy5.5-labeled anti-human CD3 antibody, an APC-labeled anti-human CD28 antibody, and a Pacific Blue-labeled anti-human CD57 antibody (all from Becton, Dickinson and Company), a PE-labeled anti-human CD28 antibody (BioLegend, Inc.), and an anti-human LAG-3 antibody and an isotype control antibody labeled using a PE labeling kit (Dojindo Laboratories). […] The data was analyzed using FlowJo (manufactured by Tree Star Inc). After removal of the LIVE/DEAD Fixable Dead Cell Stain Kit-near-IR fluorescent reactive dye-positive dead cells by gating, only the living cells were analyzed by further gating CD3 positive and CD8 positive CD8 T cells.
(§2) The effect of the humanized anti-human LAG-3 antibody hLA212_H4/L2, the calcineurin inhibitor tacrolimus, and the corticosteroid dexamethasone on CD28 negative T cells and CD57 positive T cells was investigated in the assay system of Example 13. […] Out of the living cells, a CD3 positive and CD8 negative fraction and a CD3 positive and CD8 positive fraction were analyzed as CD4 T cells and CD8 T cells, respectively.

CD28 negative T cells = assay: CD28 negative T cell number after CD3/CD28 stimulation of human PBMCs for 4 days, flow cytometry; format: cell-based
Protocol: as §1, §2

LAG-3 positive cells = assay: In vivo LAG-3 positive cell depletion after Con A administration; parameters: species or system human LAG-3/human FcγRIIIA double transgenic mice; settings: 30 mg/kg intraperitoneal immediately before Con A 15 mg/kg i.v.; blood 2 days after; vs antibody non-administration group
Protocol: Using the human LAG-3/human FcγRIIIA double transgenic mice of Example 10, it was investigated whether the obtained humanized anti-human LAG-3 antibody hLA212_H4/L2 has the activity of depleting LAG-3 positive cells in vivo. Immediately after the humanized anti-human LAG-3 antibody hLA212_H4/L2 (30 mg/kg) or a solvent was intraperitoneally administered to the human LAG-3/human FcγRIIIA double transgenic mice, Con A (manufactured by Sigma-Aldrich) having polyclonal T cell activating action was intravenously administered at a dose of 15 mg/kg. Red blood cells were hemolyzed from the blood collected 2 days thereafter with PharmLyse (manufactured by Becton, Dickinson and Company) to obtain white blood cells, and the white blood cells were used for flow cytometry. […] The data was analyzed using FlowJo (manufactured by Tree Star Inc). After removal of the LIVE/DEAD Fixable Dead Cell Stain Kit-near-IR fluorescent reactive dye-positive dead cells by gating, the living cells were analyzed.

T cells (total number) = assay: Total T cell number after CD3/CD28 stimulation of human PBMCs for 4 days, flow cytometry; format: cell-based; settings: hLA212_H4/L2 10 μg/mL, tacrolimus 10 nM, dexamethasone 1 μM, PBMCs of two donors
Protocol: as §1, with “buffer.” for “buffer. The fluorescently labeled antibodies used were various combinations of a FITC-labeled anti-human CD8 antibody, a PerCP-Cy5.5-labeled anti-human CD3 antibody, an APC-labeled anti-human CD28 antibody, and a Pacific Blue-labeled anti-human CD57 antibody (all from Becton, Dickinson and Company), a PE-labeled anti-human CD28 antibody (BioLegend, Inc.), and an anti-human LAG-3 antibody and an isotype control antibody labeled using a PE labeling kit (Dojindo Laboratories).”, “cells. […]” for “cells.”

[1] = hLA212_H4/L2 10, 1, 0.1 μg/mL (effect concentration dependent), tacrolimus 10 nM, dexamethasone 1 μM, 4 days, two donors
[2] = hLA212_H4/L2 10, 1, 0.1 μg/mL, tacrolimus 10 nM, dexamethasone 1 μM, 4 days, two donors
[3] = antibodies not in a low fucose form, more weakly than hLA212_H4/L2, data not shown

| Molecule | number of CD57 positive CD8 T cells (CD57 positive T cells; [1]) | number of CD57 positive CD4 T cells (CD57 positive T cells; [2]) | number of CD28 negative CD8 T cells (CD28 negative T cells; [1]) | number of CD28 negative CD4 T cells (CD28 negative T cells; [2]) | human LAG-3 positivity in peripheral blood T cells (LAG-3 positive cells) | total number of T cells after culture, compared with the control (T cells (total number)) | number of CD57 positive T cells (CD57 positive T cells; [3]) | number of CD28 negative T cells (CD28 negative T cells; [3]) |
| --- | --- | --- | --- | --- | --- | --- | --- | --- |
| B1 | evidently reduced | reduced the number of CD57 positive CD4 T cells, albeit not as remarkably as observed in the CD57 positive CD8 T cells | evidently reduced | reduced the number of CD28 negative CD4 T cells, albeit not as remarkably as observed in the CD28 negative CD8 T cells | decreased in a remarkable manner | slightly reduced |  |  |
| B2 |  |  |  |  |  |  | tendency to reduce | tendency to reduce |
